In publication PMC10726135:
This is one part of the list. At the low end of the ranking the order means little. Measured with an extract: partners may take part in the binding.

These sequences were tested against T1, HNF4alpha2 (COS-7 nuclear extract) (UniProt P41235) (assay: protein-binding microarray). Conditions: COS-7 nuclear extract on double-stranded Agilent 4x180k PBM; binding buffer, salt, pH and temperature not given; high values mean tight binding; double strand, one strand shown; sequences stand for … in …GCCTAGGGAGATTAGAGTATCGGTCGA.
T1 sequence: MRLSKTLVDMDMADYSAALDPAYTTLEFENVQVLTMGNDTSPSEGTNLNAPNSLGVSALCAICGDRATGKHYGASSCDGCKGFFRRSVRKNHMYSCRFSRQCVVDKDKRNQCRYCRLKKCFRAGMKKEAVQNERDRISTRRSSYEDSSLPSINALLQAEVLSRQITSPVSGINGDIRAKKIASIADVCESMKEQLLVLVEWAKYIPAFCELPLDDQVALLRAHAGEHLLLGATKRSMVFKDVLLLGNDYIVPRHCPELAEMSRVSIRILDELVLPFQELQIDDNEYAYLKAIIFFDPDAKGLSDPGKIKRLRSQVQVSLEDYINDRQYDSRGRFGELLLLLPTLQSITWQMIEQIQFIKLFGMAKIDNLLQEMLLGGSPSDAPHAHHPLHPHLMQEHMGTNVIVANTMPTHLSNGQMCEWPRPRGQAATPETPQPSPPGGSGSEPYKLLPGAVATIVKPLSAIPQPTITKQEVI

| Sequence | binding signal (log2 normalized intensity) |
| --- | --- |
| GCCTCTGGGCTTTGATGGACATTGCTGGTG | 1.38 |
| CTATCACCTCTCCCACCTGAATTATTGTAT | 2.07 |
| CAGGGTCAGAAGGGAGGTAGTCGCCCTCCG | -0.764 |
| AAATAAAGCAGCAAACCAGATAAGACTATC | -1.12 |
| GGGAGCAGGCAGATTTGACCTACGGACCAT | 4.17 |
| GGAGACCTGAAACTAGACCAAGAAGACTTT | -0.974 |
| AAGCAAGACTGCAGGGTCATAGCTTTATCT | -1.01 |
| CAATAAGCCAGTGAACCTTTGTCCCGTTAT | 3.39 |
| GTGGCCATGATGCCATCTGGTGAAGCTTAT | -0.477 |
| AGTCCGTTACAGACAGGCAGCCCCTGGAAA | -0.0984 |
| CTCTGTATTGTAAAAGAAAGTGAGCAGGCA | 0.314 |
| CCAAAATGGCGACAAGAGTGACCTCTGGTC | 4.79 |
| TGTGTTGACCGATAACCCTCCTGAACATAA | 0.402 |
| AGGCGGAAGTAAGGCGGAAGTACTGCCCTT | 1.4 |
| CATCACATTCCCCAGGCAATCTTCCAGTCC | 0.836 |
| TTCACACTCCCACCAGCATGGTGATGCTAG | -1.13 |
| AACTACAAACGGATATTTGATCAAAGGTCA | 5.55 |
| ACGCAGGCCTGCAAGCTCCTGGTTGGGGCC | -1.16 |
| TGTTCATTCATTCACCTTTCGCCCTTTGTC | 3.65 |
| CTCACAGAAAGAAGAGACAGCTGGGCCCTG | -1.13 |
| GCCAGATAGCCACTGGGGTCATGGAGCTGG | 0.893 |
| CCATCTTGCCCACCAATGATCAAAGGTTAG | 4.03 |
| TGGGGGGTAGCCACTGACAGGAGGTATGCC | -1.11 |
| AGGGTGGAAGTCCAACCTTTGCTCACTTGG | 3.61 |
| GACAAATTCCTGGGAACTGCGGACATAGCT | -1.14 |

| Sequence | binding signal (log2 normalized intensity) |
| --- | --- |
| ACCTAGAGCTTCAGACGCCCTATGGCGTCC | -1.2 |
| TCCTTTGGATCATGTGTCTGAGCAAGTTTC | 2.08 |
| CATAGGAGAAACACATAAACCCTGACCCTC | 2.03 |
| AATTAGGGAGTAGGGACAGCTAGTCTAGAC | -1.1 |
| TCAAGGAAGAGAACTCCCTATCCCCAGATT | 2.35 |
| CAGGAGCAGAAGCAGGCCTCGGGCCTGCGA | -1.05 |
| GCAGCCGCCGGAGAATTAAACTGCCGCGCC | -1.14 |
| ACTTAAAAAAATCTAGTTTAGGATTTTAGC | -1.2 |
| TAAGGGAGATGAAAGGGGCCTCAGAGAAAG | -1.12 |
| ATTCTCTAGAATCTAGAAAATGCAAGGAAA | -1.11 |
| TCTTTGAATGGACTCTGAGACCTGTGATGG | 2.84 |
| ATTTACAAACAAATGCAAAACTGGCAAAAC | -1 |
| CCAGGTCCACAGTGCACATTCCAGAGAAAT | -1.14 |
| TACTTTTCAGGAACTGTTCTTTGACTCAGT | 1.51 |
| CAGCAACCGCCTACCTTTGGACTTCTCATT | 3.29 |
| TTGGACTCTGCCACTGGTTTGCACACACCA | 1.09 |
| CTGTGGGGAGGTTATCTCGGGGATGGCATG | 0.755 |
| TGACCCCTCCCCTCCCCCTTGGTGTTTAAA | 5.37 |
| TACTGGTTGAATGGACGGACAGGTAACGTA | 0.856 |
| ATCTTTTTAGCAACTGGTATGTTAGATTAG | 1.18 |
| TGTGTGTAACATTTGACTTCCCCAAAACTT | 2.22 |
| GACAAATCTCACTGATAGTCTCCTATCAAG | -1.12 |
| GTCCTGCACATGAATGATCAAAGGTTGGTT | 3.66 |
| TGTGCTAGATACTGGAGATATGTTGCTGGA | 0.886 |
| GTGACTTGAAAGGGACTTAGAATCGAATTG | 0.297 |

| Sequence | binding signal (log2 normalized intensity) |
| --- | --- |
| TAACATTAATGGAAATGCCTAGGATACCTA | -1.02 |
| CAGCTGTTATGAGTCTGTTGTCTAACATTT | -0.782 |
| AGGGCAAAGGTCAGAGGCTGATTTCTCAGG | 4.84 |
| AGAAGACCAAACAACCAGGGAGATGTGAGC | -1.15 |
| AACTTGGTTACAGGACCAGGTGTAGATAAA | 0.142 |
| CAGTGCAAACACACAATATTGACATTCCAG | -0.784 |
| CGGCGGAGCCTCCGGCCTGAGGCAGGATCA | -1.13 |
| AAGACTAACCTTTGACCATCCACGGGTCCA | 4.65 |
| GCAGTGAAATTCTGGCCAACCAGCACTTCT | -0.995 |
| GGCCACAGACCCCCGGTGGAGCAGCTTTCT | 1.36 |
| CAGAGCAAAGGGCTTATTTTAGGAGCCTCC | -1.1 |
| CTGAATAAAACAAACTCATTTTGATCTTTG | 2.24 |
| CAGAGAAGCCGTGGTGCTGTCCAAGGTGCT | -1.12 |
| TCAGCCATCTCCCCAGGGAGGCCTGGGCCC | -1.16 |
| CCTGCTGCTGGCTGGCGGCCTTTGGGTCCC | 1.13 |
| GTAGGCGTATGCTGTACAGATCTCTACGAC | -1.07 |
| AGAACTGTTAACTTTGTACTCAATTTGGAT | 1.68 |
| AAGGACAAAGGTCAACAAACGCCCCTTGGA | 5.06 |
| AACTGTCACAAGAAAGGCAGAAAACTCAGA | -0.803 |
| AATCTCTCAAGTTGCCCGCTTGGCCCTCTT | 1.51 |
| TAAACCCGATCCTTACTATTAGGTCTTTGA | 1.78 |
| AGCACATCACACAGGCATATTTGGTTAGCT | -0.688 |
| CAGTATTAATGTCAAACTGATCAGAAGTGG | 1.02 |
| CCTTAAGAGCAGTCTGCTCAAGTCTTTTAG | -0.799 |
| GATAAGAACTGCAAGGCTAGAGATTCTCCC | -1.18 |

| Sequence | binding signal (log2 normalized intensity) |
| --- | --- |
| GTTGGGCAAGACTCGTGAAAAGAGTGATCT | 0.206 |
| GCCAGCAACGGTGAGTCAAGCACTTCTCAC | -1.07 |
| GTTTTTCTTCAAGGAGGTGAACTTTGAGAC | 6.13 |
| CAAAACCAGTTTTTCCAGCAGCGGATCCAA | -1.08 |
| TTTCTCAGCCCCATCCCCCAATACACACAC | 5.06 |
| CTTAAATGAGATAAGATGAAGCTCTCAGAA | -1.04 |
| AACATGGATTTTGGAGCCAAACAGGTGTGG | 1.06 |
| GTTTGCACAAAGGGTTATGGGAAGTGGGGT | 1 |
| TCCAAAGGAGTGGTCCTGCTCAAAGGGGAA | -1.12 |
| TGCCAAGTGATAAGGAACCTAGGAAATCAA | -1.12 |
| GTCTGCTATTATCATCTCTTGTCTGGAATA | 1.29 |
| GAGAAGTTGCTCTTTACACCATTGCAAGGA | -0.941 |
| ATTCAAAGCAGAGGTGACCCTTGCACTCAT | 6.29 |
| CTTTGCCCTCCCTAAATCCAGAGGTATTTG | 1.88 |
| GTGGGAGGATCGCTTGAGCCTGGGAGGCAA | -1.14 |
| AGCAATACATTGAACTTTGAACACCTCTTC | 5.41 |
| CTTACCTGCCAAATATTGGGCAATGCTAGG | -1.2 |
| CCTAGCCCTCTTTCAAAGACAAATATCGAC | -0.714 |
| AGCAGCTACATAAGGGTAGAGACCTTTGTT | 2.14 |
| ATGCAGCTAAAAGCAGCATCCCTGATAAAC | -1.07 |
| GAGCCTGGACACACGAATAATGGAGCTGAT | -0.825 |
| CAGGCCCTTCTACATGAGGAGTGAGAACAG | -1.2 |
| GGCTTCACAATTCCTAGCAATTCAAATTCT | -1.03 |
| GGATTAAGTGCATACTCAAAGAATTTAACA | -1.07 |
| CTTATGCATAGATGTTTAGCTATCAGTGTT | 1.55 |

| Sequence | binding signal (log2 normalized intensity) |
| --- | --- |
| TGTAGATAAACTGGAAAGGGCTTCAGAGTC | 0.04 |
| CAGGAAGTTCCCACAGTCCTTAAGATCCAA | -1.07 |
| CCTTATCATCACATGTGCAAGGGCAGCTCC | 0.669 |
| AGGCTGGGTGATAAGAACACAAAAGCCTCT | -1.09 |
| GTTAAGTAACGTGTCAGAGGTCACTCAGCA | 2.29 |
| AAACTTATCTTGTGACCTTTGACTCATTAT | 6.43 |
| ATAAAAGATTGCATCTGTTTTTATTTCCCC | 1.79 |
| TCAGGCTGTGGTACGGAATCCAGGCCAACT | -0.838 |
| GAACCGTCGTAATGGCTAAGGGCATCTACT | -1.13 |
| ATCCAAAGTTCATGGAAAGTTTCACTTTCT | 0.643 |
| CAAAATTTTAATTAGAACTGTAATTGAGTA | 0.832 |
| GTTCCGACCTTAGTACTCTGCCATGTGCTA | 1.82 |
| TCCCGGGGAGTCCTGGGCGTTGCTCTCCCA | -1.16 |
| GGGAGGAGGAGACAAAGGCCGCGCCCGCCC | -1.15 |
| GAGCCTGGGGTTCAGCCACACCAAGTCTGG | -1.25 |
| TCCAGATCAAGGATTTTTTCTTGGACTTTG | 5.42 |
| ATCTTTGCCCTTGAAGATACAGTTATGAAA | 1.44 |
| GTGCAAAGGCCTTAAAGTGTAAATATTTGA | 0.685 |
| CAGAGCATTGTTTATTGTTGCTGATATAGA | 1.33 |
| AAGCAGTCTACACTAGGAGGAGGTCAAAGT | 3.88 |
| TTCCCTTATCTTCTCCCCTGCCAAATCATG | 2.6 |
| TGGTCAAAGGTCACCAGTGAGCCAAGGTAC | 4.75 |
| AAACTTCATGGCTTAAAACGACTGATTCTC | -1.17 |
| CTTTACTTATCCAAAGCTGCTGGGAGGTAG | 0.725 |
| CCTGGTCAAAGTCAACTCCTCCAAGCCACC | 0.61 |

| Sequence | binding signal (log2 normalized intensity) |
| --- | --- |
| GAAGGACAAAGATCATAAATGCCTCCCCCT | 4.54 |
| CAAAACTTTAGGACTTTGAACCTTGGGTCT | 7.13 |
| TTTATCCAGTTCTGTGTACAAAGCCCCATA | 3.46 |
| GGCCTCTCCTTCATCTTCAAAGCCAGCAAT | 0.209 |
| CCCCACTTCCTGACTTGGCCTGAACCAGTT | 0.163 |
| TTCAAGAAGACCTTTGCTCCACGTTCATAT | 3.39 |
| TGGTTTTTCTGGGACCAAGGGTCAGTTCAT | 3.42 |
| AAATGTAATCAGCAAGTTTTATATGAAAAC | -0.182 |
| GGACTCCAAGCCCCAAAAACTTGGACTCTA | 5.21 |
| TACCCAACTCATCAGTATTTGATGGTACAA | 1.28 |
| TATTGGATTCCCCAATGCAGTACTATGCAA | 1.54 |
| CAGGTGGGAGGGGTGGACTTTGGCTTTTCC | 5.47 |
| CTTAAAGGCCTGTGTCGATGTTAACGCTAA | -0.828 |
| TACCTGATGAAGCAATAGGAATCACACAAC | -1.12 |
| GGTGGACATGGTCCAGTCACAGCAAAAGTA | 0.248 |
| TTAGGCAAGCAAACTGCAAATACAGGTGAA | -1.07 |
| AGAGAGATAGCAAAATCAATAAATCACACG | -1.04 |
| GAAGACAGTTCAAATCCCTTCGGATGACTC | -1.05 |
| AGCCTCTTGAGTAGCTGGGACTACAGGCAG | -1.14 |
| AAGCCGAACGCTGGGGCAAAGGTTTCCTAA | 0.42 |
